Experimental findings from PubChem BioAssay AID485344 (National Center for Advancing Translational Sciences (NCATS), 2010) are described below.

One may read the inhibition as the drop in the measured response relative to a control, in per cent.

About 6,900 (2%) of roughly 340,000 compounds were called active. No stated cut-off is given here; in the data, active means inhibition above about 30%; inactive means below that, where a call was filed. The entries are a selection whose mix differs from that of the whole data set. Where no call is shown, the source filed none.

For this experiment, the target named is D(2) dopamine receptor (Homo sapiens) (UniProt P14416). Briefly: HTS Assay for Allosteric Antagonists of the Human D2 Dopamine Receptor: Primary Screen for Antagonists. Further: 0% is about no effect. The conditions noted are these: HEK293 TREx D2 cells, calcium flux, dopamine EC80; at 10 µM; stronger effect = higher value. In outline: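 Antagonism is scored as inhibition of an EC80 dopamine-evoked calcium signal in a force-coupled, tetracycline-inducible HEK293 T-REx D2 line, with compound present 180 s before agonist.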
UniProt P14416, sequence (P14416 whole entry, looked up): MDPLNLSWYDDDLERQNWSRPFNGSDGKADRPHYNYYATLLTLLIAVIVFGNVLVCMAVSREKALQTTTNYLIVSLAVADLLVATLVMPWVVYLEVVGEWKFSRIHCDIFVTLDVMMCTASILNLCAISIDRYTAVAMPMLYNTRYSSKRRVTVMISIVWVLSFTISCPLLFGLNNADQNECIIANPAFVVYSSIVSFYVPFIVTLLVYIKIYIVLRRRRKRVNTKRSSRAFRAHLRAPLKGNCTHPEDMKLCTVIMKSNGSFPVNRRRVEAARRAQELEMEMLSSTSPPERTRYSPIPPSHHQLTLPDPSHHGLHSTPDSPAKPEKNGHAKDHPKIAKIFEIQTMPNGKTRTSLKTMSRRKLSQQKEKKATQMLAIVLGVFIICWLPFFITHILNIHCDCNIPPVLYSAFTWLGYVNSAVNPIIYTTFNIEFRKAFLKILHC
In general terms: Calcium assays in cells follow changes in intracellular calcium, usually with a dye or a luminescent sensor.
As to `CCc1cccc2c(-c3ccc(F)cc3)nc(SCC(=O)Nc3ccccc3)nc12`, the inhibition was -19.9%.

As to `CC(C)CCNC(=O)C1CCN(C(=O)N2CCOc3ccc(Cl)cc32)CC1`, the inhibition was -5.13%.

For the compound `COc1ccc(C(=O)Nc2ccc(-c3cc4ccccc4oc3=O)c(C)c2)cc1OC`, the inhibition worked out at 11.3%.

Regarding `O=C(C1CCC(Cn2c(=O)c3sccc3n(Cc3cccc(F)c3)c2=O)CC1)N1CCCCC1` (configuration not stated), the inhibition was determined as 11.5%.

For `O=C(NCCc1ccccc1)C(=O)NCC(c1cccnc1)N1CCN(c2ccccc2F)CC1` (configuration not stated), the inhibition is -6.34%.

`COc1ccccc1Nc1nn2c(=O)c3ccc(C(=O)NCc4ccc(F)cc4)cc3nc2s1`: the inhibition was -11.6%.

As to `COc1ccc(NC(=O)c2c(C)oc3ccc(O)c(CN4CCC(C)CC4)c23)cc1`, the inhibition worked out at 12.4%.

`COc1cccc(OCC(=O)NCCS(=O)(=O)N2CCN(c3ccccc3F)CC2)c1`: the inhibition was -3.84%.

For `Cc1oc2ncn(CC(C)C)c(=O)c2c1C(=O)NCCc1ccccc1`, the inhibition was -9.38%.

With `S=C(Nc1ccc(Cl)cc1)NC1CC2CCC(C1)N2Cc1ccccc1` (configuration not stated), the inhibition is active: 93.3%.

For `Cc1ccc(-c2nc(CNC(=O)Nc3ccccc3)c(C)o2)cc1`, the inhibition is -5.19%.

Regarding `COc1ccc(-c2cn3cccnc3n2)cc1NC(=O)Cc1ccccc1`, the inhibition was 4.01%.

In the case of `COc1ccccc1N(C)S(=O)(=O)c1ccc(C(=O)NCC2CCCCC2)cc1`, the inhibition is active: 79.8%.

Consider `CCc1nc2cccnc2n1-c1ccc(CC(=O)Nc2c(C)cccc2C)cc1`, for which the inhibition was -1.49%.

Regarding `CCN(CC)C(=O)CSc1nc2ccsc2c(=O)n1Cc1ccccc1Cl`, the inhibition amounted to 3.1%.

For the compound `Cc1cc(C)n2c(Nc3ccc(C(C)C)cc3)c(-c3ccsc3)nc2n1`, the inhibition is -12.4%.

Regarding `Cc1ccc2c(c1)-c1c(cnn1CC(=O)N1CCN(c3ccccc3F)CC1)CO2`, the inhibition is -5.96%.

With `Cc1csc(NC(=S)Nc2cccc(Cl)c2)n1`, the inhibition is active: 32.1%.

On to `CCCCN(CCCNC(=O)CN1N=C(c2ccc(C)cc2)CCC1=O)c1ccccc1`, for which the inhibition is 0.312%.

As for `CCN1CCN(c2nc(-c3ccccc3)c3ccccc3n2)CC1`, the inhibition was active: 58.8%.

Regarding `CCN(CC)CCCNC(=O)CCCn1ncn2c(cc3occc32)c1=O`, the inhibition came to 2.28%.

For `Cc1c(-c2cccc(NC(=O)Nc3ccc(Cl)cc3)c2)nc2ncccn12`, the inhibition was -20.3%.

`COc1ccccc1-c1noc(-c2ccc(NC3CCCCC3)c([N+](=O)[O-])c2)n1`: the inhibition was found to be 10.8%.

Turning to `CC1CCCCN1C(=O)Cn1ncc2c3ccccc3n(Cc3ccccc3F)c2c1=O` (configuration not stated), the inhibition was -3.9%.

With `COc1ccc(CN(C(=O)c2cc3ccccc3oc2=O)C2CCS(=O)(=O)C2)cc1OC` (configuration not stated), the inhibition was 8.2%.

`CN(C)CCCNC(=O)/C(=C\c1ccc(-c2cccc([N+](=O)[O-])c2)o1)NC(=O)c1ccccc1`: the inhibition was active: 36.9%.

Take `c1ccc(-c2noc(-c3cccnc3NCc3ccco3)n2)cc1`: the inhibition amounted to 5.29%.

`Cc1ccc(NC(=O)Cn2c(=O)oc3cc(S(=O)(=O)N4CCCCC4)ccc32)c(Cl)c1`: the inhibition is -6.61%.

`Cc1cccc(Cn2c(SCc3ccc(C(=O)NCc4ccccc4F)cc3)nc3ccncc32)c1`: the inhibition was found to be 9.71%.

In the case of `O=C(Nc1ccc(Cl)cc1F)c1cnc2sc(N3CCOCC3)nn2c1=O`, the inhibition is 14.2%.

With `COCCCN1C(=O)c2ccccc2CC1(C)C(=O)NC1CCCCC1` (configuration not stated), the inhibition is 11.3%.

For `COc1ccc(C2C(C(=O)Nc3ccc(Cl)cc3)=C(C)Nc3nc(SCc4cccc(C)c4)nn32)cc1OC` (configuration not stated), the inhibition is -0.174%.

`CC(C)(C)OC(=O)N1CCC(c2c(C(=O)N3CCN(c4ccccn4)CC3)cnn2-c2ccccc2)CC1`: the inhibition turned out to be 4.83%.

For `COc1ccccc1CNc1cc(C)nc2nc(-c3ccc(C)cc3)nn12`, the inhibition is 1.99%.

With `COc1ccc(-c2nc(C)c(CCNC(=O)c3cccs3)s2)cc1OC`, the inhibition is 10.1%.

With `Cc1ccc2nc(NC(=O)CSc3nccn3-c3ccc(Cl)cc3)sc2c1`, the inhibition came out at 15.3%.

As for `CCN(CCCc1ccccc1)CCCc1ccccc1`, the inhibition was active: 83.1%.

In the case of `COc1ccc(-n2c(SCC(=O)N3CCc4ccccc43)nc3c([nH]c4ccccc43)c2=O)cc1`, the inhibition was found to be 0.216%.

With `COc1ccc(C(=O)Nc2ccc3oc(-c4ccc(F)cc4Cl)nc3c2)cc1`, the inhibition was found to be 7.44%.

For `Cc1ccccc1NCC(=O)N/N=C/c1c(C)c(C(=O)c2ccc(Cl)cc2)n2ccccc12`, the inhibition is active: 32%.

Regarding `CCc1ccc(CNC(=O)c2cc3ccccn3n2)cc1`, the inhibition is -8.08%.

For the compound `CCOC(=O)C1CCCN(C(=O)Cn2ncc3c(C)n(Cc4ccccc4Cl)c(C)c3c2=O)C1` (configuration not stated), the inhibition is -11.6%.

With `CCCc1nc2ccccc2n1CC(O)COc1ccc(C(=O)OC)cc1` (configuration not stated), the inhibition came out at 22.9%.

For the compound `Cc1ccc(CNc2oc(-c3ccc(COc4ccc(C)cc4)o3)nc2C#N)cc1`, the inhibition was -17.3%.

With `Cc1ccc(NC(=O)c2c(C)nc3sc(C(=O)Nc4ccc(F)cc4)c(N)c3c2-c2ccc(C)o2)c(C)c1`, the inhibition amounted to 5.07%.

Take `CC1CN(C(=O)CCC(=O)Nc2cc(F)ccc2F)c2ccccc2S1` (configuration not stated): the inhibition is -0.831%.

On to `CC(O)CNCCOc1ccccc1OCc1ccccc1` (configuration not stated), for which the inhibition was active: 45.4%.

As to `Cc1ccc(C)c(NC(=O)Cn2c(=O)n(-c3ccc(CC(=O)NCC4CCCO4)cc3)c(=O)c3ccccc32)c1` (configuration not stated), the inhibition was 10.9%.

Turning to `Cc1ccc(OCC(=O)NCC2(N(C)C)CCCCC2)cc1C`, the inhibition is 4.61%.

Turning to `Cn1c(CN2CCCC2)nc2cc(NS(=O)(=O)c3ccccc3)ccc21`, the inhibition was active: 67.4%.

As for `O=C(Nc1cccc(C(F)(F)F)c1)c1cc2nc(-c3ccc4c(c3)OCO4)cc(C(F)(F)F)n2n1`, the inhibition was -4.94%.

As for `COc1ccc(C2(NC(C)=O)CCN(C(=O)c3ccco3)CC2)cc1`, the inhibition is active: 32.9%.

For the compound `NCCc1nc2cccnc2n1-c1ccccc1`, the inhibition was determined as 14.6%.

For the compound `Cc1ccc(-c2nc(CSc3nncn4c3cc3occc34)c(C)o2)cc1`, the inhibition was -4.95%.

With `COc1ccc(C)cc1NC(=O)N1CC(C)Sc2ccccc21` (configuration not stated), the inhibition is -0.245%.

Take `Cc1ccc(Cn2cc(C(=O)c3ccc4c(c3)OCO4)c(=O)c3cc(C)ccc32)cc1`: the inhibition was -11.4%.

Regarding `Cc1cc(C)cc(NC(=O)c2cnc3sc(N4CCCC4)nn3c2=O)c1`, the inhibition is -15.5%.

With `CCc1ccccc1NC(=O)c1nnn(Cc2ccc(Cl)cc2)c1N`, the inhibition is 2.34%.

Take `COCCNC(=O)CSc1nc(-c2ccccc2)[nH]c1-c1ccc(OC)cc1`: the inhibition is -2.96%.

Take `CCOC(=O)C1=C(CN2CCN(c3ccc(OC)cc3)CC2)NC(=O)NC1c1ccc(Cl)cc1` (configuration not stated): the inhibition is -1.28%.

Consider `CCOc1ccc(NC(=O)C2CCCN(S(=O)(=O)c3c(C)noc3/C=C/N(C)C)C2)cc1` (configuration not stated), for which the inhibition is -1.39%.

With `CC(C)Cn1c(=O)c2sccc2n2c(CCCC(=O)N3CCN(c4ccc(F)cc4)CC3)nnc12`, the inhibition was -0.964%.

As for `Fc1ccc2[nH]c(-c3cccs3)cc2c1`, the inhibition was -3.84%.

With `COc1cccc(-n2c(SCC(=O)Nc3nnc(C)s3)nc3c([nH]c4ccccc43)c2=O)c1`, the inhibition was -1.36%.

Turning to `Cc1ccc(CNC(=O)c2cnn(-c3cccc(C)c3)c2C2CCN(C(=O)OC(C)(C)C)CC2)cc1`, the inhibition amounted to 4.79%.

For `CC(=O)c1ccc(NS(=O)(=O)c2ccc(-c3cnc(C4CC4)o3)cc2)cc1`, the inhibition came out at 15.4%.

With `Cc1ccc(NC(=O)c2cc3nc(-c4ccccc4)cc(-c4ccccc4)n3n2)cc1`, the inhibition is -10.9%.

Regarding `CCCCc1nn2c(=O)cc(COC(=O)c3ccc(NC(=O)C(CC)CC)cc3)nc2s1`, the inhibition was 12.7%.

As to `CCn1cnc2c(=O)oc3ccc(S(=O)(=O)Nc4ccc(OC)cc4)cc3c21`, the inhibition came to 20.7%.

Consider `CCOCCCn1c(=N)c(C(=O)NC2CCCC2)cc2c(=O)n3cc(C)ccc3nc21`, for which the inhibition was 1.37%.

For the compound `CCC1CCCCN1S(=O)(=O)c1cc(C(=O)Nc2ccc(C)c(F)c2)ccc1F` (configuration not stated), the inhibition is -23.3%.

For the compound `COc1ccc(CCNC(=O)c2ccc(Cn3c(=O)c4ccccc4n(Cc4cccc(C)c4)c3=O)cc2)cc1OC`, the inhibition came to 3.93%.

As for `Cc1cc(C)cc(NC(=O)Nc2nnc(N(C)C3CCCCC3)s2)c1`, the inhibition worked out at 3.77%.

As to `COc1ccccc1-c1noc(CCCC(=O)NCc2ccco2)n1`, the inhibition is 13.7%.

In the case of `COc1cc(NC(=O)Cn2c(=O)n(CC3CCCO3)c(=O)c3ccccc32)cc(OC)c1` (configuration not stated), the inhibition was -10.5%.

Regarding `CCOc1ccc(CCNc2nc3ccccc3n3c(C)nnc23)cc1OCC`, the inhibition was found to be 21.6%.

In the case of `COc1ccc2sc(N(Cc3cccnc3)C(=O)COc3ccccc3)nc2c1`, the inhibition was -2.15%.

As for `COc1ccc(C(=O)Nc2nnc(C(C)C)s2)cc1OC`, the inhibition was -16.1%.

For the compound `Cc1cccc(Oc2nc3c(c(=O)n(C)c(=O)n3C)n2Cc2ccccc2)c1C`, the inhibition is -1.62%.

In the case of `COc1ccc(-n2cc(-c3ccccc3)c3c(NC4CCCC4)ncnc32)cc1`, the inhibition was -8.44%.

Take `Cc1cccc(C)c1OCc1cc(=O)n2c3c(sc2n1)CCCC3`: the inhibition was -10.2%.

For `Cc1ccc(C(=O)COC(=O)C(Cc2c[nH]c3ccccc23)NC(=O)c2ccc(C(C)(C)C)cc2)cc1` (configuration not stated), the inhibition turned out to be 8.04%.

As to `CCOC(=O)C(C)Sc1nc(-c2ccccc2Cl)cc(-c2ccccc2)c1C#N` (configuration not stated), the inhibition was -0.896%.

Turning to `Cc1cc(C)cc(NC(=O)CSc2nc(=O)n(Cc3ccccn3)c3c2CCC3)c1`, the inhibition was -19.3%.

On to `CCN(c1ccccc1)S(=O)(=O)c1ccc(-c2cc(C)no2)s1`, for which the inhibition turned out to be 7.91%.

With `Cc1ccc2[nH]c(=O)c(CN(C(=O)c3cccc(Cl)c3)C(C)(C)C)cc2c1`, the inhibition is -4.24%.

As to `Cc1ccccc1C(=O)Nc1cccc(C(=O)OCc2cc(=O)n3ccsc3n2)c1`, the inhibition was -1.32%.

With `Cc1ccc(NC(=O)c2ccc(CN3CC(=O)N4CCCCC4C3=O)cc2)cc1` (configuration not stated), the inhibition is -12.3%.

Take `COc1ccc(OC)c(CNC(=O)c2cnc3c(C)cccn3c2=O)c1`: the inhibition is -17.6%.

With `CCc1cccc(NC(=O)Cn2c(=O)n(-c3cccc(Cl)c3)c(=O)c3c2c2cc(C)ccc2n3C)c1`, the inhibition is -7.95%.

Take `Cn1c(SCC(=O)N2CCCc3ccccc32)ncc(C(=O)Nc2ccccc2)c1=O`: the inhibition was found to be 14.7%.

Consider `CCc1nn2c(=O)cc(COC(=O)c3ccc(NC(=O)COc4ccc(C)cc4)cc3)nc2s1`, for which the inhibition stood at 6.81%.

Regarding `CC1=C(C(=O)Nc2ccc(C)cc2C)C(c2ccc(C(=O)O)cc2)n2nc(SCc3ccccc3)nc2N1` (configuration not stated), the inhibition amounted to 5.71%.

Consider `CCOc1ccc(CNC(=O)CC(C)n2nc(C)cc2C)cc1OC` (configuration not stated), for which the inhibition is -8.15%.

For the compound `Cc1ccc2c(c1)c1c(c(=O)n(-c3ccccc3)c(=O)n1CC(=O)c1ccc(F)cc1)n2C`, the inhibition stood at 1.88%.

In the case of `COc1cc(OC)c(N(C)C(=O)c2cn(C3CCCC3)c(=O)c3c2c2ccccc2n3C)cc1Cl`, the inhibition came out at 4.03%.

In the case of `Cc1ccccc1C(=O)OCc1cc(=O)n2nc(C(C)C)sc2n1`, the inhibition turned out to be 1.95%.
